PubChem BioAssay AID1963576 (National Center for Advancing Translational Sciences (NCATS), 2024)
Among all 46,000 compounds or so, about 60 (0.1%) were called active. Not shown: some 3% with an inconclusive outcome. Calls follow the shape of the dose curve; as a rule, active = well fitted inhibition curve with a large enough effect; inconclusive = small, poorly fitted or top-dose-only effect; inactive = no such curve, though single readings can be large or run the other way. The list shows a part of the results.

test: Primary qHTS assay for Inhibitors of ovarian cancer metastasis using an organotypic tumor microenvironment (TME) model.; also: nearly all actives have a fitted effect of over 65% in size;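 as to activity change, negative = inhibition: plate controls were DMSO wells for no effect and tomatine positive control wells for full effect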; conditions: SKOV3ip1-GFP adhesion/invasion on 3D omental model, fluorescence; series mostly up to 45.8 µM; activity change, negative = inhibition: at the top concentration
Summary of the method: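 Adhesion/invasion was scored as fixed GFP-labeled SKOV3ip1 cell counts (488/509 nm), normalized to DMSO and tomatine controls. Cancer cells in serum-free medium, with four compound doses (0.36-46 umol/L), sat 2 hr at RT then 16 hr at 37 C on a 48 hr fibroblast/mesothelial/ECM culture.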

Activity change, negative = inhibition, inactive:
CN(CC(=O)Nc1ccc(Br)cc1)S(=O)(=O)c1cccc2nsnc12 -4.95%
COc1ccc(NC(=O)C2CCN(C(=O)c3sc4nc[nH]c(=O)c4c3C)CC2)cc1Cl -12.3%
COc1ccc(NC(=O)c2oc3ccccc3c2NC(=O)c2cc(C)cc(C)c2)c(OC)c1 26.6%
CN1C(=O)Cc2cc(S(=O)(=O)CCC(=O)N3CCN(c4ccc(Cl)cc4)CC3)ccc21 -4.61%
CN(Cc1ccccc1)c1ccc(-c2nc(-c3ccccc3)no2)cc1[N+](=O)[O-] -7.76%
C=Cc1ccc(Cn2c(C)c(CNCc3ccc(SC)cc3)c(C(=O)O)c2C)cc1 1.62%
CC(=O)Nc1cccc(NC(=O)CSc2nccn2C2CCCC2)c1 -2.6%
Cc1ccc2[nH]c(=O)c3cc(C(=O)N(CCCOC(C)C)Cc4ccco4)sc3c2c1 -11.8%
COc1ccc(Cl)cc1NC(=O)CSc1nnc2[nH]c(=O)cc(-c3ccccc3)n12 -3.15%
CCC(Sc1ncc(S(=O)(=O)c2ccc(Cl)cc2)c(=O)[nH]1)C(=O)Nc1ccc(OC)cc1 (stereo unspecified) 2.77%
Cc1ccc(OCc2nc(C#N)c(NCCc3ccccc3)o2)cc1 6.7%
Cc1ccccc1NC(=O)CSC1=Nc2ccccc2C2=NC(Cc3ccccc3)C(=O)N12 (stereo unspecified) 3.19%
O=C(NCc1nc2ccccc2n1Cc1ccccc1Cl)c1ccccc1 11.9%
COC(=O)c1cc2sc(Cl)cc2n1CC(=O)Nc1cc(OC)cc(OC)c1 7.31%
O=C1CN(C(=O)COc2ccccc2)C(c2ccc(F)cc2)c2cc(Br)ccc2N1 (stereo unspecified) -11.3%
CCCc1nn2c(=O)cc(COC(=O)C3CCCCC3)nc2s1 0.842%
COc1ccc(-c2nn(-c3ccc(F)cc3)c3c2cnc2ccc(F)cc23)cc1OC 15.9%
COc1cccc(CNC(=O)c2ccc3c(c2)N(Cc2ccc(F)cc2Cl)C(=O)c2ccccc2S3)c1 -5.13%
Cc1ccccc1CN1C(=O)c2ccccc2Sc2ccc(C(=O)NCc3ccccc3)cc21 1.92%
Cc1ccc(Cl)cc1NC(=O)Nc1cn(CC(C)C)c(=O)c2ccccc12 -6.6%
CCN(CCCNC(=O)c1cc(Nc2ccc(OC)cc2)nc2ccccc12)c1cccc(C)c1 -6.26%
COCCn1c(SCC(=O)c2c(C)[nH]c3ccccc23)nc2cc(C(=O)NC(C)C)ccc2c1=O 66.4%
CCOc1ccc(CCNC(=O)Cn2ccc3cc(S(=O)(=O)N4CCCCC4)ccc32)cc1 -1.94%
Cc1ccc(-n2c(=O)[nH]c3cc(C(=O)NCCc4ccccc4)ccc3c2=O)cc1 -7.37%
Cc1ccc(NC(=O)NC(C)c2c(-n3cccc3)sc(C)c2C)cc1F (stereo unspecified) -15.1%
COc1cc(NC(=O)C2CCN(c3nnc(C)c4c(C)n(-c5ccccc5)nc34)CC2)cc(OC)c1 0.948%
Cc1ccc2c(C)c(C(=O)NCC(c3ccc(Cl)cc3)N3CCOCC3)oc2c1 (stereo unspecified) 0.327%
CCOC(=O)c1ccc(NC(=O)CSc2nnc(-c3ccncc3)n2-c2ccccc2)cc1 2.11%
CCN(C(=O)CSc1nc2ccccc2n1Cc1ccccc1C#N)c1ccccc1 -4.25%
Cc1cccc(C)c1NC(=O)Cn1c(=O)n(Cc2ccccc2Cl)c(=O)c2cccnc21 4.46%
NC1(c2ccc(-c3nc4ccn5c(=O)[nH]nc5c4cc3-c3ccccc3)cc2)CCC1 -16.5%
Cc1ccc(-c2nc(S(=O)(=O)c3ccc(C)cc3)c(SCC(=O)c3ccccc3)o2)cc1 -3.77%
COc1ccc(-n2nc(C(=O)Nc3ccc(C)cn3)c3c4ccccc4n(C)c3c2=O)cc1Cl -8.77%
CCOc1ccc(CNC(=O)c2cnc3c(C)cccn3c2=O)cc1 4.85%
CCC(c1ccc(O)cc1)C(CC)c1ccc(O)cc1 (stereo unspecified) -20.7%
Cc1ccc2c(c1)c(=O)c1ccccc1n2CCCC(=O)Nc1ccc(Cl)cc1C 2.82%
O=C(/C=C/c1ccccc1)Nc1nc(-c2cccs2)ns1 -5.6%
N#C/C(=C\c1ccccc1F)c1nc2ccccc2c(=O)[nH]1 14.1%
CCC(O)c1nc2ccccc2n1CCOc1cc(C)cc(C)c1 (stereo unspecified) -8.4%
CCCn1ccc2c(OCC(=O)Nc3ccc(C(F)(F)F)cc3)cccc2c1=O -11.9%
Cc1ccc(CN(C(=O)c2ccc([N+](=O)[O-])cc2)c2ccccn2)cc1 2.87%
NC(=O)c1noc([C@H](CCCC2CCCCC2)CC(=O)NO)n1 4.85%
COc1ccc(OC)c(-n2cnc3cc(C(=O)NCCc4ccccc4)ccc32)c1 15.1%
CC1(CN2CCC(n3c(=O)[nH]c4ccccc43)CC2)OCc2ccccc2-n2cccc21 (stereo unspecified) 0.794%

outcome, inactive:
CCOC(=O)C1CCN(c2nc3ccccc3nc2Cl)CC1
Cc1cc2oc(C(=O)N(Cc3ccc(N(C)C)cc3)CC3CCCO3)c(C)c2cc1Cl (stereo unspecified)
COc1ccccc1NC(=O)CSc1nc2c(oc3ccccc32)c(=O)n1-c1ccccc1F
O=C(CN1C(=O)c2cccc3cccc1c23)Nc1cccc(F)c1
CCc1cccc(NC(=O)c2cc3c(s2)-c2ccccc2OC3)c1
Cc1cc(C)c(NC(=O)C(=O)NCC(c2cccnc2)N2CCN(c3ccccc3F)CC2)c(C)c1 (stereo unspecified)
COC(=O)c1ccc2c(=O)n3nc(Nc4cc(OC)ccc4OC)sc3nc2c1
COC(=O)c1ccccc1NC(=O)c1oc2ccc3c(c2c1C)C(=O)CC(C)(C)O3
Cc1ccc(NC(=O)CCCn2c(=O)c3cccn3c3ccccc32)cc1Cl
CCOC(=O)c1ccccc1NC(=O)c1cnn(-c2ccc(OC)cc2)c1C1CCN(C(=O)OC(C)(C)C)CC1
COc1cccc(NC(=O)CCc2nnc3n(CC(C)C)c(=O)c4ccccc4n23)c1
CC(=O)c1ccc(NC(=O)CN2C(=O)CCc3cc(S(=O)(=O)N4CCC(C)CC4)ccc32)cc1
CCOc1ccccc1C(=O)Nc1cc2c(cc1N1CCCCC1)n(C)c(=O)n2C
O=C(Nc1ccccc1F)c1oc2ccccc2c1NC(=O)C12CC3CC(CC(C3)C1)C2
COc1ccc(NC(=O)CSc2n[nH]c(-c3ccccc3)n2)cc1Cl
O=C(Nc1ccc(Cl)c(C(F)(F)F)c1)c1cc2nc(-c3ccc4c(c3)OCO4)cc(C(F)(F)F)n2n1
Cc1cc(Nc2cccc(C(F)(F)F)c2)nc2ccc(NC(=O)c3cncc(Br)c3)cc12
